# Reference: the supplement of paper PMC11417369
# ± gives the standard deviation of the averaged measurements. Some of the results follow.
# Test system: PfAP2-EXP AP2 domain (GST-tagged)
# Test: gcPBM binding intensity (ln(normalized median fluorescence intensity)); higher = stronger DNA binding
# Procedure, shortened: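 DNA-binding domains from P. falciparum, fused to GST and produced in E. coli, were put on an Agilent 4 × 180k double-stranded probe array for 1 h in 1× PBS holding 1% milk, 0.2 mg/ml BSA, 0.5% salmon testes DNA and 0.03% Triton X-100. Probes were primer-extended, 36 bp long and drawn from intergenic genomic regions, with negative controls included. After Alexa488 anti-GST antibody detection and a 488 nm scan, binding intensity was set as the highest Masliner-normalised natural-log median intensity across replicate spots of either probe orientation.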
row,Sequence,gcPBM binding intensity (ln)
1,TCTTGTTCGCCCTATTGTACAAACATATATTGTGAT [XGTACX_site2884],9.16 ± 0.42
2,ATTAATTTGATTTTAATAAGAATATTTGTGGGGAAT [GTGCAC_negctrl_site198],8.62 ± 0.79
3,TGAATAATAAAAAATACACACACATATATATATATT [CACACA_site9146],8.45 ± 0.47
4,ATATTGATTTGTGGCACACATATAATATATTCCTAT [CACACA_site3046],8.51 ± 0.21
5,TTTTCAATATATATATGCTGAATTTATAATTTGTAT [CACACA_negctrl_site1774],8.26 ± 0.35
6,TTTTATTTTTGTTGGTCCCTCATTTAAGTTAATAAA [TGCATGCA_negctrl_site465],8.69 ± 0.33
7,ATATATACATACATATGTACATATGTAGATATATTT [XGTACX_site1230],8.33 ± 0.31
8,TACGTTTTAAAACACACACACAAAAAAAAAAAAAAA [CACACA_site3876],8.23 ± 0.47
9,ATTATGAAATATCGTGCACACACGAATAATATAAGA [CACACA_site1294],8.735 ± 0.007
10,TATTTGTTTAAATTCACACACGTATATATATTTATA [CACACA_site5651],8.62 ± 0.38
11,ATTTTTTTTGTTTATTCTTATGTGGTTATTAAATTA [CACACA_negctrl_site1000],8.9 ± 0.64
12,AAAAGAGAAATGGGCACACACACACCCATTATATAT [CACACA_site1530],8.49 ± 0.49
13,ATTTTTATATATATCTGTACTAAAAAAAAAAAAAAA [XGTACX_site5258],8.19 ± 0.33
14,AGAAGTAAAAAAATAGCACACACACTAATACCAACA [CACACA_site8354],8.93 ± 0.62
15,AAACAAAAAAGAAAAACAATGAGATAAAGAAGAGAA [CACACA_negctrl_site804],9.07 ± 0.77
16,TTTAATTATTTATTTTGTACATATATTATATATATA [XGTACX_site5760],8.66 ± 0.3
17,AAAAGAAAAATATTCACACATATAAATAATATATAA [CACACA_site4201],8.24 ± 0.33
18,TTATATTAATATTATATTTAAAAATAAAATATAAAT [TGCATGCA_negctrl_site79],7.66 ± 0.33
19,TATTTATATATTTGTTGTACGTATTTATATATTCTT [XGTACX_site3622],8.87 ± 0.39
20,AAATAAATAAATAGAGTGCATATATATATATATTTT,8.49 ± 0.16
21,ATATACAAAGGATTAACACACATATTATTATAGATA [CACACA_site6966],8.47 ± 0.47
22,CTTTTTATTTATCATACACACACAGAAAAAAAAAAA [CACACA_site7935],8.6 ± 0.46

row,Sequence,gcPBM binding intensity (ln)
1,ATAGGAGAAAAAGAATGTACGTATGATGTTGAAAAT [XGTACX_site7779],9.23 ± 0.27
2,ATTATGCACAGACACACACACACACTACTAAAAAAT [CACACA_site7252],8.91 ± 0.21
3,AATTTTTAGAAGAACACACACATATATATTATGACC [CACACA_site246],8.71 ± 0.49
4,AAGCATTTTTTTTAAAGCCTGTTCATCATCCTTACC [CACACA_negctrl_site129],8.57 ± 0.45
5,AAAAAAAATAAAAATATATATATATATATATAAATA [GTGCAC_negctrl_site676],8.44 ± 0.27
6,TACATTATAAATATTACACACTTTATAAAATAATAA [CACACA_site6096],8.07 ± 0.36
7,ACCGTGGGAGGACACACACACACACGCACATATATA [CACACA_site6289],8.52 ± 0.33
8,AAATAACTTTTAAATACACACGTAAAATATATTGTG [CACACA_site9085],8.44 ± 0.42
9,ATAATATTTTTATGTACACACCTTAATCCTTAAAAG [CACACA_site5881],8.54 ± 0.35
10,TTAACCACTAAAAGTACACACATATATACATATATA [CACACA_site3912],8.49 ± 0.13
11,TCCTTTTTTTTTTATGCACACACAATTATACATTCC [CACACA_site9287],9.06 ± 0.4
12,TCTATTAATTAATATACACACATTATATATATATAT [CACACA_site8815],9.36 ± 1.2
13,AATATATATATATATATATTTTTGTTAGAATATGGA [CACACA_negctrl_site212],8.32 ± 0.26
14,AAATATTACATACACGCACACATTAAAATATTTAAA [CACACA_site5440],8.62 ± 0.44
15,ATGTACCTTCAAACTACACACAAATGAAGGAACACA [CACACA_site3330],8.71 ± 0.5
16,ATCTAATAAAAATACACACACATATGGTTTGTGAAT [CACACA_site6962],8.21 ± 0.43
17,ATATAGAATGTTTACACACGCAATAAATATATATAT [CACACA_site217],9.27 ± 0.13
18,ATGGTATAAAAAAATACACACTTATTTATATTCTTA [CACACA_site6370],8.23 ± 0.29
19,GCGTATCATTTTAAAACACACAGGATTTTATAAGTA [CACACA_site1225],8.4 ± 0.4
20,AAAAATAACATATAAACACACATATAGATTTATATA [CACACA_site7738],8.4 ± 0.38
21,TTAAAAAATCACAACACACACACACGCAAAAAAAAA [CACACA_site6793],8.7 ± 0.57
22,TGTAGTCTGGAGAAGAGTACACAGTATCTGGTAGCT [XGTACX_site2036],8.5 ± 0.35
